From PubChem BioAssay (NCATS)
The other results are listed elsewhere or left out. These are further read-outs of the screen, such as a control signal, another cell line or another target. No call is given for them. The list favours compounds with an active or inconclusive main result. The note in brackets gives the kind of curve behind each potency; many fits are weak.
Tags give direction and shape of the fitted curve.

Assay: qHTS Assay for Lipid Storage Modulators (AID 1519)
Conditions: Drosophila S3 cells, BODIPY lipid droplet/cell ratio, laser cytometry; measured here: cell count channel max response; cells loaded with oleic acid
Outline: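 Cells seeded at 5,000 per well were treated with compounds over a concentration series and loaded with oleic acid (400 uM, as added). Lipid droplet fluorescence (488 nm excitation, 500-530 nm channel) was read by laser-scanning cytometry and normalized to 20 uM Triacsin C.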
`COc1ncc2nc(-c3cc(F)cc(F)c3)c(=O)n(Cc3cccs3)c2n1` gave a max response of 22.6%. Compound `COc1cc(C(=O)NCc2ccc(OCCN(C)C)cc2)cc(OC)c1OC` has a max response of 16.6%. `c1ccc2cc(C3=NCCN3)ncc2c1` gave a max response of 28.7%. Work on `CCC(=O)N[C@@H]1CCc2cccc(OC)c2C1` yielded a max response of 58.6%. Compound `Cc1cc(-c2ccccc2)nnc1NCCN1CCOCC1` has a max response of 23.5%. With `C[C@H]1[C@H]2CC[C@H]3C4CC=C5C[C@@H](N(C)C)CC[C@]5(C)C4CC[C@]23CN1C` (stereo partly drawn) the max response was 27.6%. For `NC(=O)NC(=O)Cc1ccccc1`, the max response was 29.3%. In the case of `N#CCCn1c(=O)c(-c2ccc(Cl)cc2)nc2cnc(N3CCNCC3)nc21`, the max response is reported as 22%. Work on `c1ccc(CNc2ccnc(-c3cccnc3)n2)cc1` yielded a max response of 28.6%. Compound `CCNc1ncc2nc(-c3ccc(Cl)cc3)c(=O)n(-c3ccccc3)c2n1` has a max response of 14%. Work on `N#CCCn1c(=O)c(-c2ccc(F)cc2)nc2cnc(N3CCNCC3)nc21` yielded a max response of 25.3%. For `COc1ccc(-n2c(=O)cnc3cnc(Oc4cccc(Cl)c4)nc32)cc1`, the max response was 18.5%. With `CN1CCN(c2ccnc(-c3cccnc3)n2)CC1` the max response was 26.5%. `Cc1cccc(CNc2ncncc2-c2ccc(C(=O)N(C)C)cc2)c1` showed a max response of 7.25%. `CC(C)=CCc1c(O)cc(O)c2c1O[C@H](c1ccccc1)CC2=O` gave a max response of 50.7%. Work on `CN(C)c1ncc2nc(-c3cccc(C#N)c3)c(=O)n(C)c2n1` yielded a max response of 28.7%. With `CCCCCCCC(=O)O[C@H](CC(=O)O)C[N+](C)(C)C` the max response was 15%. Compound `Cc1ccccc1OCC(O)CO` (stereo not drawn) has a max response of 22.1%. For `COc1ccc(NC(=O)N2CCC3(CC2)CCN(C(=O)c2cccc(F)c2)CC3)cc1`, the max response was 26.7%. Work on `CC(=O)NCCc1c[nH]c2ccc(O)cc12` yielded a max response of 22.7%. For `Nc1ccc(C(=O)NCC(=O)O)cc1`, the max response was 23.7%. Work on `CCN(CC)CC(=O)Nc1c(C)cccc1C` yielded a max response of 21.2%. `C=C1c2c(Cl)ccc(O)c2C(O)=C2C(=O)[C@]3(O)C(O)=C(C(N)=O)C(=O)C(N(C)C)C3C(O)C12` (stereo partly drawn) showed a max response of 17.9%. For `CO/N=C(/C(=O)N[C@H]1C(=O)N2C(C(=O)O)=C(COC(C)=O)CSC12)c1csc(N)n1` (stereo partly drawn), the max response was 22.9%. Work on `N#Cc1cccc(NC(=O)N2CC[C@@]3(CCCN(C(=O)c4cccc(F)c4)C3)C2)c1` yielded a max response of 21.7%. In the case of `O=C(Oc1ccccc1)N1CCC2(CC1)CN(c1ncccn1)C2`, the max response is reported as 4.08%. For `O=c1c(-c2ccccc2)nc2cncnc2n1-c1ccccc1`, the max response was 25.9%. With `O=C1OCCN1/N=C/c1ccc([N+](=O)[O-])o1` the max response was -23.1%. With `O=C(c1cnccn1)N1CCC2(CC1)CCN(c1ccccc1)CC2` the max response was 6.8%. With `N#Cc1cccc(-c2nc3cnc(Nc4ccccc4)nc3n(C[C@H]3CCCO3)c2=O)c1` the max response was 11.7%. Work on `Cc1nc2cnc(Nc3ccccc3)nc2n(Cc2cccs2)c1=O` yielded a max response of -1.31%. Work on `COC(=O)N1CCC2(CCN(C(=O)Nc3cccc(F)c3)CC2)CC1` yielded a max response of 20.4%. In the case of `Nc1nc(/C(=C/CC(=O)O)C(=O)NC2C(=O)N3C(C(=O)O)=CCSC23)cs1` (stereo not drawn), the max response is reported as 22.9%. `CN1CCN(c2ncc3nc(-c4ccc(Cl)cc4)c(=O)n(C4CC4)c3n2)CC1` gave a max response of 28.4%. In the case of `COc1ccc(C(=O)N2CCC[C@@]3(CCN(Cc4cc(C(F)(F)F)cc(C(F)(F)F)c4)C3)C2)cc1`, the max response is reported as 15.3%. `CC(=O)OC1CC(OC(C)=O)[C@]2(C)C(CC(OC(C)=O)[C@@]3(C)C4=CC(=O)OC(c5ccoc5)[C@]4(C)CCC32)C1(C)C` (stereo partly drawn) gave a max response of -4.04%. In the case of `COc1ccc2c3c1OC1CC(O)C=C[C@@]31CCN(C)C2` (stereo partly drawn), the max response is reported as 22.3%. With `CN(C)c1ncc2ncc(=O)n(CCc3ccccc3)c2n1` the max response was 2.98%. For `COc1ccc(NC(=O)N2CC[C@@]3(CCCN(C(=O)c4c(C)noc4C)C3)C2)cc1`, the max response was 28.9%.

Same assay, conditions: Drosophila S3 cells, BODIPY lipid droplet/cell ratio, laser cytometry; measured here: cell number channel AC50; cells loaded with oleic acid
With `CCC(=O)N[C@@H]1CCc2cccc(OC)c2C1` the AC50 was 14.1 µM [rising, partial curve]. With `CC(=O)NCCc1c[nH]c2ccc(O)cc12` the AC50 was 5.62 µM [falling, partial curve, poor fit]. In the case of `O=C(Oc1ccccc1)N1CCC2(CC1)CN(c1ncccn1)C2`, the AC50 is reported as 1.58 µM [rising, partial curve, poor fit]. With `N#Cc1cccc(-c2nc3cnc(Nc4ccccc4)nc3n(C[C@H]3CCCO3)c2=O)c1` the AC50 was 0.00501 µM [rising, full curve, poor fit].

Same assay, conditions: Drosophila S3 cells, BODIPY lipid droplet/cell ratio, laser cytometry; measured here: lipid (BODIPY) channel AC50; cells loaded with oleic acid
For `COc1ncc2nc(-c3cc(F)cc(F)c3)c(=O)n(Cc3cccs3)c2n1`, the AC50 was 2.51 µM [rising, partial curve]. With `COc1cc(C(=O)NCc2ccc(OCCN(C)C)cc2)cc(OC)c1OC` the AC50 was 12.6 µM [rising, partial curve, poor fit]. With `c1ccc2cc(C3=NCCN3)ncc2c1` the AC50 was 14.1 µM [rising, partial curve, poor fit]. For `Cc1cc(-c2ccccc2)nnc1NCCN1CCOCC1`, the AC50 was 28.2 µM [rising, partial curve, poor fit]. In the case of `C[C@H]1[C@H]2CC[C@H]3C4CC=C5C[C@@H](N(C)C)CC[C@]5(C)C4CC[C@]23CN1C` (stereo partly drawn), the AC50 is reported as 35.5 µM [rising, single point]. For `NC(=O)NC(=O)Cc1ccccc1`, the AC50 was 39.8 µM [rising, partial curve, poor fit]. In the case of `N#CCCn1c(=O)c(-c2ccc(Cl)cc2)nc2cnc(N3CCNCC3)nc21`, the AC50 is reported as 5.01 µM [rising, full curve, poor fit]. For `c1ccc(CNc2ccnc(-c3cccnc3)n2)cc1`, the AC50 was 1.58 µM [rising, full curve]. With `CCNc1ncc2nc(-c3ccc(Cl)cc3)c(=O)n(-c3ccccc3)c2n1` the AC50 was 0.0447 µM [rising, full curve, poor fit]. With `N#CCCn1c(=O)c(-c2ccc(F)cc2)nc2cnc(N3CCNCC3)nc21` the AC50 was 25.1 µM [rising, single point]. In the case of `COc1ccc(-n2c(=O)cnc3cnc(Oc4cccc(Cl)c4)nc32)cc1`, the AC50 is reported as 0.01 µM [rising, full curve, poor fit]. In the case of `CN1CCN(c2ccnc(-c3cccnc3)n2)CC1`, the AC50 is reported as 11.2 µM [rising, partial curve, poor fit]. For `Cc1cccc(CNc2ncncc2-c2ccc(C(=O)N(C)C)cc2)c1`, the AC50 was 1 µM [rising, full curve, poor fit]. With `CC(C)=CCc1c(O)cc(O)c2c1O[C@H](c1ccccc1)CC2=O` the AC50 was 35.5 µM [rising, single point]. For `CN(C)c1ncc2nc(-c3cccc(C#N)c3)c(=O)n(C)c2n1`, the AC50 was 3.55 µM [rising, full curve, poor fit]. With `CCCCCCCC(=O)O[C@H](CC(=O)O)C[N+](C)(C)C` the AC50 was 17.8 µM [rising, single point]. For `Cc1ccccc1OCC(O)CO` (stereo not drawn), the AC50 was 39.8 µM [rising, single point]. For `COc1ccc(NC(=O)N2CCC3(CC2)CCN(C(=O)c2cccc(F)c2)CC3)cc1`, the AC50 was 0.0398 µM [rising, full curve, poor fit]. For `Nc1ccc(C(=O)NCC(=O)O)cc1`, the AC50 was 39.8 µM [rising, single point]. For `CCN(CC)CC(=O)Nc1c(C)cccc1C`, the AC50 was 0.0398 µM [rising, full curve, poor fit]. With `C=C1c2c(Cl)ccc(O)c2C(O)=C2C(=O)[C@]3(O)C(O)=C(C(N)=O)C(=O)C(N(C)C)C3C(O)C12` (stereo partly drawn) the AC50 was 39.8 µM [rising, single point]. For `CO/N=C(/C(=O)N[C@H]1C(=O)N2C(C(=O)O)=C(COC(C)=O)CSC12)c1csc(N)n1` (stereo partly drawn), the AC50 was 31.6 µM [rising, single point]. For `N#Cc1cccc(NC(=O)N2CC[C@@]3(CCCN(C(=O)c4cccc(F)c4)C3)C2)c1`, the AC50 was 8.91 µM [rising, full curve, poor fit]. For `O=c1c(-c2ccccc2)nc2cncnc2n1-c1ccccc1`, the AC50 was 5.01 µM [rising, partial curve]. In the case of `O=C1OCCN1/N=C/c1ccc([N+](=O)[O-])o1`, the AC50 is reported as 25.1 µM [falling, partial curve, poor fit]. With `O=C(c1cnccn1)N1CCC2(CC1)CCN(c1ccccc1)CC2` the AC50 was 0.141 µM [rising, full curve, poor fit]. With `Cc1nc2cnc(Nc3ccccc3)nc2n(Cc2cccs2)c1=O` the AC50 was 0.00794 µM [rising, full curve, poor fit]. With `COC(=O)N1CCC2(CCN(C(=O)Nc3cccc(F)c3)CC2)CC1` the AC50 was 0.01 µM [rising, full curve, poor fit]. For `Nc1nc(/C(=C/CC(=O)O)C(=O)NC2C(=O)N3C(C(=O)O)=CCSC23)cs1` (stereo not drawn), the AC50 was 39.8 µM [rising, single point]. For `CN1CCN(c2ncc3nc(-c4ccc(Cl)cc4)c(=O)n(C4CC4)c3n2)CC1`, the AC50 was 4.47 µM [rising, partial curve, poor fit]. For `COc1ccc(C(=O)N2CCC[C@@]3(CCN(Cc4cc(C(F)(F)F)cc(C(F)(F)F)c4)C3)C2)cc1`, the AC50 was 3.16 µM [rising, partial curve, poor fit]. For `CC(=O)OC1CC(OC(C)=O)[C@]2(C)C(CC(OC(C)=O)[C@@]3(C)C4=CC(=O)OC(c5ccoc5)[C@]4(C)CCC32)C1(C)C` (stereo partly drawn), the AC50 was 14.1 µM [falling, partial curve]. With `COc1ccc2c3c1OC1CC(O)C=C[C@@]31CCN(C)C2` (stereo partly drawn) the AC50 was 7.94 µM [rising, partial curve, poor fit]. With `CN(C)c1ncc2ncc(=O)n(CCc3ccccc3)c2n1` the AC50 was 0.447 µM [rising, full curve]. With `COc1ccc(NC(=O)N2CC[C@@]3(CCCN(C(=O)c4c(C)noc4C)C3)C2)cc1` the AC50 was 0.0126 µM [rising, full curve].
